Test results published in article PMC4336329 (PLoS ONE, 2015).
Out of some 310,000 compounds screened, about 2,200 (0.71%) showed an effect of 50% or more. The effect is printed as a negative number. The list shows a part of the results.

Molecular target: human ether-à-go-go-related gene (hERG) potassium channel (human, UniProt Q12809)
Experiment: primary screen, population patch clamp on CHO cells stably expressing hERG

human ether-à-go-go-related gene (hERG) potassium channel, sequence (Q12809 whole entry, looked up): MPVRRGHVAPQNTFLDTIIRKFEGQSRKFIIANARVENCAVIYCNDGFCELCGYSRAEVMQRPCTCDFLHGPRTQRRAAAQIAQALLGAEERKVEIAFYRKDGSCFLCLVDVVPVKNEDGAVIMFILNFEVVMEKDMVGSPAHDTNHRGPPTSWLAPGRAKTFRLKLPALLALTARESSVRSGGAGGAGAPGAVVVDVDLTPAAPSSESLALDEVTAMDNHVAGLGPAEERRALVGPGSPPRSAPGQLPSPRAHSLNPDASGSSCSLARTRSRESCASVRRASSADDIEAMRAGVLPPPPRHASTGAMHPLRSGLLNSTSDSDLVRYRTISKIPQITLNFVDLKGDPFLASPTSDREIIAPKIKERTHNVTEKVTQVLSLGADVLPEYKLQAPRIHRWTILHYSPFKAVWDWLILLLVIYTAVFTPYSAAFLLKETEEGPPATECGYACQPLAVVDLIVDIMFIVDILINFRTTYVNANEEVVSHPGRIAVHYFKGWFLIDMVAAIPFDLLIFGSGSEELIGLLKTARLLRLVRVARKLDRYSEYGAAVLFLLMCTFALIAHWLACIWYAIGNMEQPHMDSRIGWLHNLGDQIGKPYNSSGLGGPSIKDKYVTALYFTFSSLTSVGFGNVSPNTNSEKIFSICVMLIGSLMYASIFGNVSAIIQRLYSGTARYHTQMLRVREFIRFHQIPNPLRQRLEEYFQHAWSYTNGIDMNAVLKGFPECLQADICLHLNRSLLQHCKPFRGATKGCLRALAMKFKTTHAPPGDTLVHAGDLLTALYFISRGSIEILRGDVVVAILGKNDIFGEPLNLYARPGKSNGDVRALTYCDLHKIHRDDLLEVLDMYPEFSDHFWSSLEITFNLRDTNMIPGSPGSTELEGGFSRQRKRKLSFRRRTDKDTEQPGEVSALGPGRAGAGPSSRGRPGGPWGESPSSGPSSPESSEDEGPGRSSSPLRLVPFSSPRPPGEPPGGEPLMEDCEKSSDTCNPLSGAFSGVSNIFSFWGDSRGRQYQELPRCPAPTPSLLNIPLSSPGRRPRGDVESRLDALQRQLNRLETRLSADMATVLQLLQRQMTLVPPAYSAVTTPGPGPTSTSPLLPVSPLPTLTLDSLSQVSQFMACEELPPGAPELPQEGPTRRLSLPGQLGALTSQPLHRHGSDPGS

Row | SMILES | hERG current change (%, negative = inhibition) at 1uM
1 | O=C(/C=C/c1ccc(S(=O)(=O)N2CCOCC2)cc1)NC(=S)Nc1ccc(N2CCOCC2)cc1 | 10.9%
2 | Cc1cccc(N2CCN(C(=O)Cc3ccc(Br)cc3)CC2)c1C | 4.95%
3 | CC1CCCC(C)N1C(=O)CSc1nnc(C2CCCCC2)o1 (stereo not shown) | 2.29%
4 | COC(=O)Nc1sccc1C(=O)Nc1sccc1C(=O)OC | 11.6%
5 | COc1ccccc1N1C(=S)N=C(Nc2c(C)cccc2C)C12CCCC2 | 11.2%
6 | c1ccc2sc(C3CCN(Cc4nnnn4Cc4ccc5c(c4)OCO5)CC3)nc2c1 | 7.43%
7 | COc1ccccc1CNC(=O)CCn1c(=O)[nH]c2ccsc2c1=O | 5.2%
8 | Cc1ccc(/C=C/c2ccc(=O)n(Cc3ccc(F)cc3)n2)cc1 | 2.51%
9 | COc1ccc(/C=C2/Sc3ccc(C(=O)N4CCc5ccccc5C4)cc3NC2=O)cc1 | 6.99%
10 | CC(=O)Nc1nc(-c2ccccc2)nc(C)c1C(C)=O | 1.51%
11 | Cc1cc(C)cc(NC(=O)C2(c3cccs3)CCOCC2)c1 | 17.5%
12 | Cc1nc(CNS(=O)(=O)c2ccc3c(c2)OCCO3)cs1 | 7.4%
13 | C/C(=N\NC(=O)C(=O)Nc1c(C)n(C)n(-c2ccccc2)c1=O)c1ccncc1 | -1.04%
14 | O=C(N/C(=C\c1cccs1)C(=O)N1CCOCC1)c1ccco1 | -2.36%
15 | CN(C)c1ccc(C2N(C)C(=O)c3ccccc3N2C)cc1 (stereo not shown) | 9.2%
16 | O=C(NC1CCN(S(=O)(=O)c2ccc(F)cc2)CC1)c1ccco1 | 16.1%
17 | Cc1cccc(N2CCN(C(=O)CSc3nc4ccccc4nc3N3CC(C)OC(C)C3)CC2)c1C (stereo not shown) | 10.2%
18 | O=C(NCC1COc2ccccc2O1)C1CCN(S(=O)(=O)c2cccc3nsnc23)CC1 (stereo not shown) | 13.3%
19 | O=C(Nc1cccc(S(=O)(=O)N2CCCCC2)c1)C1CCCN1S(=O)(=O)c1ccccc1F (stereo not shown) | -5.15%
20 | C/C=C/C(=O)Nc1ccccc1Br | 10.8%
21 | COc1cc(OC)c(C(=O)OCC(=O)Nc2nnc(-c3ccccc3)o2)cc1OC | 11.5%
22 | CC(=O)ON1C(C)(C)CC(OC(=O)c2ccccc2)CC1(C)C | 15.3%

Row | SMILES | hERG current change (%, negative = inhibition) at 1uM
23 | Cc1ccc(C)c(S(=O)(=O)NCCCN2CCOCC2)c1 | 11.7%
24 | Nc1cc2nc3ccccc3oc-2cc1=O | 11.2%
25 | COc1ccc([C@H]2CC(=O)C=C(c3ccc(C)c([N+](=O)[O-])c3)C2)cc1 | 24%
26 | COc1ccc(C[C@](C)(N)C(=O)O)cc1OC.Cl | 8.83%
27 | O=C(Cc1ccccc1)Nc1c2c(nn1-c1cccc(Cl)c1)CS(=O)(=O)C2 | -38.4%
28 | Cc1cnc(NC(=O)C2CCCC2)s1 | 23.1%
29 | COc1ccc(C2C(C#N)=C(N)Oc3cc(C)n(CCN4CCOCC4)c(=O)c32)cc1OC (stereo not shown) | 0.544%
30 | COc1ccc(OC)c(NC(=O)CCNS(=O)(=O)c2cccc3nsnc23)c1 | 8.18%
31 | Cc1ccc(C(=O)N2CCCC(C(=O)Nc3cccc(-c4ccc(F)cc4)c3)C2)cn1 (stereo not shown) | 7.01%
32 | CC(Sc1nc(-c2ccccc2)cc(C(F)(F)F)n1)C(=O)N1CCOCC1 (stereo not shown) | 10.8%
33 | O=C(CSc1nnc2ccccn12)NC(=O)c1ccccc1 | -1.43%
34 | O=C(Nc1c(C(=O)N2CCOCC2)cnn1-c1ccccc1)c1ccc([N+](=O)[O-])cc1 | 10.5%
35 | CC(C)[C@H](NC(=O)[C@@H]1Cc2c([nH]c3ccccc23)C2c3ccccc3C(=O)N21)C(=O)N1CCC[C@@H]1C(=O)O (stereo partly shown) | 14%
36 | COC(CNC(=O)c1cc(S(=O)(=O)N2CCc3ccccc32)ccc1F)OC | 18.2%
37 | COC(=O)c1ccc(COc2ccc(C#N)cc2)o1 | 11.1%
38 | CC(=O)Nc1nc2c(F)cccc2s1 | 8.54%
39 | CC(=O)N1CCc2cc(S(=O)(=O)NC(C(=O)NC(C)c3ccccc3)C(C)C)ccc21 (stereo not shown) | 13%
40 | CC1(C)CC(=O)C=C(NC2CCCCC2)C1 | 11.4%
41 | CCc1ccc(C2C(C#N)=C(N)Oc3cc(N)ccc32)cc1 (stereo not shown) | 7.36%
42 | CCc1ccc(NC(=O)C(C)OC(=O)/C=C/c2cccc([N+](=O)[O-])c2)cc1 (stereo not shown) | -4.46%
43 | Cc1cc(Cl)ccc1OCC(=O)N[C@@H](Cc1ccccc1)c1nc2ccccc2[nH]1 | -11%
44 | Cc1ccc(NC(=O)Nc2ccccc2CC[N+](=O)[O-])cc1 | 13.1%

Row | SMILES | hERG current change (%, negative = inhibition) at 1uM
45 | Cc1cc(Cl)ccc1OCC(=O)NNC(=O)C1CCN(c2ncnc3sc(C)c(C)c23)CC1 | 11%
46 | CCNC(=O)/C(=C/c1ccco1)NC(=O)/C=C/c1ccccc1 | 14.4%
47 | COc1cccc2c1[C@@H]1CN(CCCCn3c(=O)[nH]c4c(sc5ncc(-c6ccccc6)nc54)c3=O)C[C@@H]1CO2.Cl | 5.05%
48 | COc1ccc(OC)c(NC(=O)CSc2nnc(Cc3cccn3C)n2-c2ccc(F)cc2)c1 | -0.0502%
49 | O=[N+]([O-])c1ccc(Cl)c(-c2ccc(/C=N/c3c(-c4ccco4)nc4ccccn34)o2)c1 | 2.54%
50 | Cc1ccc(CNC(=O)Cn2cnc(S(=O)(=O)N3CCCCC3)c2)o1 | -0.534%
51 | O=C(C1=C(O)C(=O)N(CCCN2CCOCC2)C1c1ccc(Cl)cc1)c1cc2ccccc2o1 (stereo not shown) | 15.8%
52 | CCOC(=O)C1CCN(Cc2cnc(Oc3ccc(Cl)cc3C)s2)CC1 | -3.38%
53 | CCC(=O)NCCn1ccc2ccccc21 | 9.26%
54 | COc1cc(/C=C/C(=O)Nc2ccccc2C(F)(F)F)cc(OC)c1OC | 6.01%
55 | C/C(Cl)=C/Cn1c(N2CCCC2)nc2c1c(=O)[nH]c(=O)n2C | -3.41%
56 | CCOC(=O)CC(NS(=O)(=O)c1ccc(OC)c(C)c1)c1cccc([N+](=O)[O-])c1 (stereo not shown) | 9.68%
57 | CCOC(=O)c1ccc(N(C(=O)c2ccco2)C(C(=O)NC2CCCCC2)c2ccncc2)cc1 (stereo not shown) | 6.81%
58 | Cc1c(C(C)C)c(=O)n(-c2ccc(S(=O)(=O)NC(C)C)cc2)n1C | 12.5%
59 | CCOc1ccc(C(=O)NC2CCCCCCC2)cc1 | 10.6%
60 | O=C1C(=O)N(CCN2CCOCC2)C(c2ccc([N+](=O)[O-])cc2)/C1=C(/O)c1ccc2c(c1)OCO2 (stereo not shown) | 14.5%
61 | CC(C#N)(NC(=O)CN1CCN(S(=O)(=O)c2ccccc2C#N)CC1)C1CC1 (stereo not shown) | 8.82%
62 | O=C(COC(=O)c1ncc(Cl)c(Cl)c1Cl)NCc1ccccc1 | 8.74%
63 | O=C(Nc1ccc(F)cc1)C(c1ccccc1)N1CCN(S(=O)(=O)c2ccccc2)CC1 (stereo not shown) | 4.88%
64 | COC(=O)c1ccc(/C=N/NC(=O)CC(=O)NCc2cccnc2)cc1 | 6.92%
65 | Cc1ccc(CN(C)C(=O)C2CCCN2C(=O)c2cccs2)o1 (stereo not shown) | 5.28%
66 | Cl.N/N=c1\sc2ccccc2n1-c1ccccc1 | 9.97%

Row | SMILES | hERG current change (%, negative = inhibition) at 1uM
67 | C=CCOC(=O)C1=C(C)N(C)C(=O)NC1c1cc2c(cc1Br)OCO2 (stereo not shown) | 9.5%
68 | COc1ccc(-c2cc(N)n(S(=O)(=O)c3c(F)c(F)c(F)c(F)c3F)n2)cc1OC | -6.97%
69 | O=C(Nc1nnc(SCc2ccccn2)s1)C1CC(=O)N(c2ccc(F)cc2)C1 (stereo not shown) | 11.2%
70 | COc1ccc(Nc2nc(N)nc(CN3CCc4ccccc4C3)n2)cc1 | -23.3%
71 | Cc1ccc(C)c(NC(=O)C2CCCN(S(=O)(=O)c3c(C)noc3/C=C/N(C)C)C2)c1 (stereo not shown) | 9.51%
72 | COc1ccc(OCC(=O)N2CCC3(CC2)CC(=O)c2ccccc2O3)cc1 | -70.2%
73 | Cc1ccc(N(CC(=O)NCCc2ccc(Cl)cc2)S(=O)(=O)c2c(C)noc2C)cc1 | 12.9%
74 | CCCS(=O)c1nc(C)cc(C)c1S(C)(=O)=O (stereo not shown) | 4.95%
75 | CCCCC(=O)N(Cc1ccc2c(c1)OCO2)Cc1nc2ccccc2c(=O)[nH]1 | 13.1%
76 | CN1CCN(c2ccc(NS(=O)(=O)c3ccc(Cl)cc3)cn2)CC1 | -4.7%
77 | COCCN(C(=S)Nc1cccc(C)c1)C(C)c1cccs1 (stereo not shown) | 13.3%
78 | S=c1[nH]nc(-c2cnccn2)n1-c1ccccc1 | 7.76%
79 | COc1ccc(Cl)cc1NC(=O)CCc1nnc2ccc(N3CCC4(CC3)OCCO4)nn12 | 6.73%
80 | O=C(C1=C[C@H](C2CCCCC2)C[C@H](OCc2ccc(CO)cc2)O1)N1CCN(Cc2ccc3c(c2)OCO3)CC1 | 4.68%
81 | O=C(NCCCn1ccnc1)/C(=C\c1cccs1)NC(=O)c1cccs1 | -27.6%
82 | CCCCN(C(=O)CC1CCCCC1)c1c(N)n(CC(C)C)c(=O)[nH]c1=O | 1.82%
83 | C=CCn1c(-c2cc3c(s2)CCC(CC)C3)n[nH]c1=S (stereo not shown) | 4.9%
84 | O=S(=O)(c1ccccc1)c1ccc(C(F)(F)F)cn1 | 14.9%
85 | CCOc1ccc(NC(=O)CCNS(=O)(=O)c2ccc3c(c2)oc(=O)n3C)cc1 | 13.5%
